Data as given in ChEMBL document CHEMBL1135086.

Test system: O=[N+]([O-])c1ccc(O)c(O)c1
Assay: Effect on the Kinetic parameters of L-citrulline formation from L-arginine catalyzed by neuronal nitric oxide synthase determined at 100 uM

Q: What does the source list for “Nitric oxide synthase 1 (Rattus norvegicus) (no sequence given)”?
A: Km: 16 µM; Vmax (uM min-1 mg-1): 0.57
